Read-outs that look alike come from different tables or passages of the source. No constants are given. Whether binding was seen depends on the method and setting. Binding seen in cells or lysates may run through a third protein. Some binding calls cover weakened binding; strength is not graded here. Each block holds one molecule with its values, some of them ahead of it.
Columns and labels:
[1] = biological target: IL1R1 in HepG2 cells (wild-type and ANGPTL3 knockout; Figure 6G–J) (human) (UniProt P14778); experiment: co-IP; HepG2 cells, wild-type and ANGPTL3 knockout; NP40 lysis buffer; indicated antibody and protein G magnetic beads, 4 °C; washed with 500 mM NaCl; western blotting and quantitative analysis
[2] = biological target: IL1RAP in HepG2 cells (wild-type and ANGPTL3 knockout; Figure 6G–H) (human) (UniProt Q9NPH3); experiment: as above
[3] = biological target: IL-1R accessory protein (IL1RAP), full-length, overexpressed (human) (UniProt Q9NPH3); experiment: co-IP; HEK293T cells transfected with the indicated plasmids; NP40 lysis buffer (20 mM Tris–HCl pH 7.4, 150 mM NaCl, 1 mM EDTA, 1% NP40); indicated antibody and protein G magnetic beads, 4 °C, 4 h or overnight; washed with lysis buffer with 500 mM NaCl; western blotting; in some panels with or without overexpressed ANGPTL3
[4] = biological target: IL-1 receptor type 1 (IL1R1), full-length, overexpressed (human) (UniProt P14778); experiment: as above
[5] = biological target: IL-1 receptor type 1 (IL1R1), full-length, overexpressed (human) (UniProt P14778); experiment: as above; remark: listed apart in the source
[6] = biological target: myeloid differentiation primary response protein 88 (MyD88), overexpressed (UniProt Q99836); experiment: as above
[7] = biological target: IL1R1 N-terminal region (truncation mutant, N-terminal 1–360 aa) (human) (UniProt P14778); experiment: as above
IKKβ, overexpressed = biological target: T1, IKKβ, overexpressed (UniProt O14920); experiment: as above
T1 sequence: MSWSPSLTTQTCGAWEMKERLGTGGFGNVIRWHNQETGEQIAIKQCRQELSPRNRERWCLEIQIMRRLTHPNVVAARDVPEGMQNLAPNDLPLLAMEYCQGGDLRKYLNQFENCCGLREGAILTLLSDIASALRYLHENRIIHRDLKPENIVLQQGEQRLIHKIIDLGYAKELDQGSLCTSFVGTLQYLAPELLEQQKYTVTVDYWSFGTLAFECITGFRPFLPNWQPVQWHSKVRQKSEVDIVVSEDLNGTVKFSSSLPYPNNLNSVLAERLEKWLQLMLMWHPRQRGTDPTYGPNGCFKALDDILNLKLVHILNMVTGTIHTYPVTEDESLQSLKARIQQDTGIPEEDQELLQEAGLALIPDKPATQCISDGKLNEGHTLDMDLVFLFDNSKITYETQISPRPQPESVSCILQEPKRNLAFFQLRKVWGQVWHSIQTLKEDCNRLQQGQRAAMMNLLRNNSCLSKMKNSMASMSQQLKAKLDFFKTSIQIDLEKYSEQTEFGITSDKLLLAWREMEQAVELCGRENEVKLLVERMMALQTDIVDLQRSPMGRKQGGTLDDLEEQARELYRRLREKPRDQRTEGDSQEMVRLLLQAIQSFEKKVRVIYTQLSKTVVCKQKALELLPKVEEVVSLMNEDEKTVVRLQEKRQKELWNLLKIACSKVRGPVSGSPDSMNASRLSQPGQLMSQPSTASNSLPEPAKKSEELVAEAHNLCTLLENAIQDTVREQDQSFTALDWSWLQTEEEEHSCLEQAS

Sequences of proteins named here, by UniProt entry; tags and fusion partners are left off. A change or cut given only in a name is not applied to a line headed by its entry. Residues count along the entry.
UniProt P14778: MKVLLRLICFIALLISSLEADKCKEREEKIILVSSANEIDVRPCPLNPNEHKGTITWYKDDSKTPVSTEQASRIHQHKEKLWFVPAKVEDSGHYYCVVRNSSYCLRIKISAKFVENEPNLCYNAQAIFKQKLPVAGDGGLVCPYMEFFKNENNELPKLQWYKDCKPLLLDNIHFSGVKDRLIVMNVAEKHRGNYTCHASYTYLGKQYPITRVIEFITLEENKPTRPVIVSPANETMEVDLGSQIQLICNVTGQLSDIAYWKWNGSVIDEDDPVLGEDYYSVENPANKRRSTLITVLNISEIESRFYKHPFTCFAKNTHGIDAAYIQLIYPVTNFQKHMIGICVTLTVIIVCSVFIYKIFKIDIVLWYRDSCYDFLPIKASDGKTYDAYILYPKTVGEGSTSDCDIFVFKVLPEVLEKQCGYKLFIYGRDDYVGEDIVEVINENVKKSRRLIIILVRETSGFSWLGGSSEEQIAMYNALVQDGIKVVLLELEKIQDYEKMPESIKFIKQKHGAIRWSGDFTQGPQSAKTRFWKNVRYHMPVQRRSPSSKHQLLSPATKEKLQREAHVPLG
IL1R1 N-terminal region (truncation mutant, N-terminal 1–360 aa): residues 18-360 of P14778
UniProt Q9NPH3, residues 21-570: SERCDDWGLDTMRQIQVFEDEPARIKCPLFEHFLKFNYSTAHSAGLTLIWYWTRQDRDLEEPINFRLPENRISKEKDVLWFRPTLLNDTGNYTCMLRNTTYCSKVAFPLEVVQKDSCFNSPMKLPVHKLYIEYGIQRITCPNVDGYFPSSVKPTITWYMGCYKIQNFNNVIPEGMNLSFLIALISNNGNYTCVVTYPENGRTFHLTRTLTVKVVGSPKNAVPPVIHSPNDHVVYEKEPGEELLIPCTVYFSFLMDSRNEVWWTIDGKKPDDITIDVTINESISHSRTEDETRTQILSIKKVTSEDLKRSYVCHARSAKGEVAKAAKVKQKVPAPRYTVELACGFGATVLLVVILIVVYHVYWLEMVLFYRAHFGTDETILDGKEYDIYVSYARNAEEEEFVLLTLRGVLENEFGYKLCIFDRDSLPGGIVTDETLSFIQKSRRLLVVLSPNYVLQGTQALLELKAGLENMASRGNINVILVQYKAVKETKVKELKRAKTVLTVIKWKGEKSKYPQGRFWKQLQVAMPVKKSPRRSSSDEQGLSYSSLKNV
UniProt Q99836: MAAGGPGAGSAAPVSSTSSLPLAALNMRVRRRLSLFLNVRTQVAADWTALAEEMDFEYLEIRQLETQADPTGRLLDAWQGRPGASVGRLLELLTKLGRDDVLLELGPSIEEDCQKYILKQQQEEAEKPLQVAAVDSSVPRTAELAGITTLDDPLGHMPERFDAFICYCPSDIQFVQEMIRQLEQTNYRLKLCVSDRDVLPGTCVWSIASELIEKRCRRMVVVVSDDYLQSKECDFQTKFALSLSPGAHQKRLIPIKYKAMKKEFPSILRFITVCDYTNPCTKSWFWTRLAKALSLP

[8] = biological target: IL-1R accessory protein (IL1RAP), full-length, overexpressed (human) (UniProt Q9NPH3); experiment: as above; remark: listed apart in the source
[9] = biological target: endogenous IL1RAP (human (endogenous in HepG2)) (UniProt Q9NPH3); experiment: co-IP; endogenous proteins in HepG2 cells, at the resting stage and under IL-1β treatment; NP40 lysis buffer; indicated antibody and protein G magnetic beads, 4 °C; washed with 500 mM NaCl; western blotting
[10] = biological target: endogenous IL1R1 (human (endogenous in HepG2)) (UniProt P14778); experiment: as above

- binding [1]: binds
- binding [2]: binds
Molecule: IL1RAP in HepG2 cells (wild-type and ANGPTL3 knockout; Figure 6G–H) (from UniProt Q9NPH3 21-570) (receptor)

- binding [3]: binds
- binding [4]: binds
Molecule: IL-1R accessory protein (IL1RAP), full-length, overexpressed (from UniProt Q9NPH3 21-570) (receptor)

- binding [4]: binds
Molecule: IL-1 receptor type 1 (IL1R1), full-length, overexpressed (from UniProt P14778 18-569)

- binding [5]: no binding
B1: ANGPTL3 1–240 aa (N-terminal truncation mutant) (domain or fragment, UniProt Q9Y5C1 17-240)
chain: SRIDQDNSSFDSLSPEPKSRFAMLDDVKILANGLLQLGHGLKDFVHKTKGQINDIFQKLNIFDQSFYDLSLQTSEIKEEEKELRRTTYKLQVKNEEVKNMSLELNSKLESLLEEKILLQQKVKYLEEQLTNLIQNQPETPEHPEVTSLKTFVEKQDNSIKDLLQTVEDQYKQLNQQHSQIKEIENQLRRTSIQEPTEISLSSKPRAPRTTPFLQLNEIRNVKHD

- binding [5]: no binding
B2: ANGPTL3 1–221 aa (N-terminal truncation mutant) (domain or fragment, UniProt Q9Y5C1 17-221)
chain: SRIDQDNSSFDSLSPEPKSRFAMLDDVKILANGLLQLGHGLKDFVHKTKGQINDIFQKLNIFDQSFYDLSLQTSEIKEEEKELRRTTYKLQVKNEEVKNMSLELNSKLESLLEEKILLQQKVKYLEEQLTNLIQNQPETPEHPEVTSLKTFVEKQDNSIKDLLQTVEDQYKQLNQQHSQIKEIENQLRRTSIQEPTEISLSSKPR

- binding [5]: binds
B3: ANGPTL3 224–460 aa (C-terminal truncation mutant) (domain or fragment, UniProt Q9Y5C1 224-460)
chain: RTTPFLQLNEIRNVKHDGIPAECTTIYNRGEHTSGMYAIRPSNSQVFHVYCDVISGSPWTLIQHRIDGSQNFNETWENYKYGFGRLDGEFWLGLEKIYSIVKQSNYVLRIELEDWKDNKHYIEYSFYLGNHETNYTLHLVAITGNVPNAIPENKDLVFSTWDHKAKGHFNCPEGYSGGWWWHDECGENNLNGKYNKPRAKSKPERRRGLSWKSQNGRLYSIKSTKMLIHPTDSESFE

- binding [5]: binds
B4: ANGPTL3 241–460 aa (C-terminal truncation mutant, FLD region) (domain or fragment, UniProt Q9Y5C1 241-460)
chain: GIPAECTTIYNRGEHTSGMYAIRPSNSQVFHVYCDVISGSPWTLIQHRIDGSQNFNETWENYKYGFGRLDGEFWLGLEKIYSIVKQSNYVLRIELEDWKDNKHYIEYSFYLGNHETNYTLHLVAITGNVPNAIPENKDLVFSTWDHKAKGHFNCPEGYSGGWWWHDECGENNLNGKYNKPRAKSKPERRRGLSWKSQNGRLYSIKSTKMLIHPTDSESFE

- binding [6]: binds
- binding [7]: binds
- binding (IKKβ, overexpressed): no binding
- binding [8]: binds
- binding [5]: binds
B5: Angiopoietin like 3 (ANGPTL3), full-length, overexpressed (protein, UniProt Q9Y5C1 17-460)
chain: SRIDQDNSSFDSLSPEPKSRFAMLDDVKILANGLLQLGHGLKDFVHKTKGQINDIFQKLNIFDQSFYDLSLQTSEIKEEEKELRRTTYKLQVKNEEVKNMSLELNSKLESLLEEKILLQQKVKYLEEQLTNLIQNQPETPEHPEVTSLKTFVEKQDNSIKDLLQTVEDQYKQLNQQHSQIKEIENQLRRTSIQEPTEISLSSKPRAPRTTPFLQLNEIRNVKHDGIPAECTTIYNRGEHTSGMYAIRPSNSQVFHVYCDVISGSPWTLIQHRIDGSQNFNETWENYKYGFGRLDGEFWLGLEKIYSIVKQSNYVLRIELEDWKDNKHYIEYSFYLGNHETNYTLHLVAITGNVPNAIPENKDLVFSTWDHKAKGHFNCPEGYSGGWWWHDECGENNLNGKYNKPRAKSKPERRRGLSWKSQNGRLYSIKSTKMLIHPTDSESFE

- binding [9]: binds
- binding [10]: binds
B6: endogenous ANGPTL3 (protein, UniProt Q9Y5C1 17-460)
chain: SRIDQDNSSFDSLSPEPKSRFAMLDDVKILANGLLQLGHGLKDFVHKTKGQINDIFQKLNIFDQSFYDLSLQTSEIKEEEKELRRTTYKLQVKNEEVKNMSLELNSKLESLLEEKILLQQKVKYLEEQLTNLIQNQPETPEHPEVTSLKTFVEKQDNSIKDLLQTVEDQYKQLNQQHSQIKEIENQLRRTSIQEPTEISLSSKPRAPRTTPFLQLNEIRNVKHDGIPAECTTIYNRGEHTSGMYAIRPSNSQVFHVYCDVISGSPWTLIQHRIDGSQNFNETWENYKYGFGRLDGEFWLGLEKIYSIVKQSNYVLRIELEDWKDNKHYIEYSFYLGNHETNYTLHLVAITGNVPNAIPENKDLVFSTWDHKAKGHFNCPEGYSGGWWWHDECGENNLNGKYNKPRAKSKPERRRGLSWKSQNGRLYSIKSTKMLIHPTDSESFE

- binding [5]: binds
B7: ANGPTL3 D42N (clinical loss-of-function mutant) (protein, UniProt Q9Y5C1 17-460)
chain: SRIDQDNSSFDSLSPEPKSRFAMLDNVKILANGLLQLGHGLKDFVHKTKGQINDIFQKLNIFDQSFYDLSLQTSEIKEEEKELRRTTYKLQVKNEEVKNMSLELNSKLESLLEEKILLQQKVKYLEEQLTNLIQNQPETPEHPEVTSLKTFVEKQDNSIKDLLQTVEDQYKQLNQQHSQIKEIENQLRRTSIQEPTEISLSSKPRAPRTTPFLQLNEIRNVKHDGIPAECTTIYNRGEHTSGMYAIRPSNSQVFHVYCDVISGSPWTLIQHRIDGSQNFNETWENYKYGFGRLDGEFWLGLEKIYSIVKQSNYVLRIELEDWKDNKHYIEYSFYLGNHETNYTLHLVAITGNVPNAIPENKDLVFSTWDHKAKGHFNCPEGYSGGWWWHDECGENNLNGKYNKPRAKSKPERRRGLSWKSQNGRLYSIKSTKMLIHPTDSESFE

- binding [5]: binds
B8: ANGPTL3 T383S (clinical loss-of-function mutant) (protein, UniProt Q9Y5C1 17-460)
chain: SRIDQDNSSFDSLSPEPKSRFAMLDDVKILANGLLQLGHGLKDFVHKTKGQINDIFQKLNIFDQSFYDLSLQTSEIKEEEKELRRTTYKLQVKNEEVKNMSLELNSKLESLLEEKILLQQKVKYLEEQLTNLIQNQPETPEHPEVTSLKTFVEKQDNSIKDLLQTVEDQYKQLNQQHSQIKEIENQLRRTSIQEPTEISLSSKPRAPRTTPFLQLNEIRNVKHDGIPAECTTIYNRGEHTSGMYAIRPSNSQVFHVYCDVISGSPWTLIQHRIDGSQNFNETWENYKYGFGRLDGEFWLGLEKIYSIVKQSNYVLRIELEDWKDNKHYIEYSFYLGNHETNYTLHLVAITGNVPNAIPENKDLVFSSWDHKAKGHFNCPEGYSGGWWWHDECGENNLNGKYNKPRAKSKPERRRGLSWKSQNGRLYSIKSTKMLIHPTDSESFE

Source: PMC11149415
